This note sets out measurements from patent US20260209297A1, “ANTIMICROBIAL PEPTIDES AND MODIFICATIONS THEREOF” (priority 2022, published 2026).

The test system of the assay is B. cinerea. Briefly: Semi-in planta gray mold assay on detached Nicotiana benthamiana leaves (drop inoculation). The class given is in vivo, Botrytis cinerea. The note with it: compared with GMA4C_AC or GMA4C_V2A.

Each structure is given as a SMILES string. Residues, ends and D or L forms follow the SMILES beside them.

As for `CC[C@H](C)[C@H](NC(=O)[C@H](CCCNC(=N)N)NC(=O)[C@@H](NC(=O)[C@H](CS)NC(=O)[C@H](Cc1ccccc1)NC(=O)[C@H](CS)NC(=O)[C@H](CCCNC(=N)N)NC(=O)[C@H](CCCNC(=N)N)NC(=O)[C@H](CCCNC(=N)N)NC(=O)[C@H](Cc1ccccc1)NC(=O)CNC(=O)[C@H](CCCCN)NC(=O)[C@H](CS)NC(=O)[C@H](CCCNC(=N)N)NC(=O)CNC(=O)CN)[C@@H](C)O)C(=O)N[C@@H](CS)C(N)=O` [GMA4C_V1A] (H-GGRCKGFRRRCFCTRIC-NH2; N-terminus assumed), the “reducing gray mold disease symptoms caused by B. cinerea” value was “more potent”.
The value for `CC[C@H](C)[C@H](NC(=O)[C@H](CCCNC(=N)N)NC(=O)[C@@H](NC(=O)[C@@H](NC(=O)[C@H](Cc1ccccc1)NC(=O)[C@@H](NC(=O)[C@H](CCCNC(=N)N)NC(=O)[C@H](CCCNC(=N)N)NC(=O)[C@H](CCCNC(=N)N)NC(=O)[C@H](Cc1ccccc1)NC(=O)CNC(=O)[C@H](CCCNC(=N)N)NC(=O)[C@H](CS)NC(=O)[C@H](CCCNC(=N)N)NC(=O)CNC(=O)CN)C(C)C)C(C)C)[C@@H](C)O)C(=O)N[C@@H](CS)C(N)=O` [GMA4C_V3A] (H-GGRCRGFRRRVFVTRIC-NH2; N-terminus assumed) was “more potent”.
